In all, about 410,000 compounds went through this assay and about 5,000 (1.2%) were called active. Inconclusive results, whose numbers are uncertain, are shown with a selection of clear calls. Calls follow the shape of the dose curve; as a rule, active = well fitted inhibition curve with a large enough effect; inconclusive = small, poorly fitted or top-dose-only effect; inactive = no such curve, though single readings can be large or run the other way. Potencies beside an inconclusive call are fits to weak or partial responses and may not hold up.
assay: qHTS for Inhibitors of TGF-b; conditions: HepG2 CAGA-GFP TGF-b/SMAD3 reporter, GFP fluorescence, 18 h, TGF-beta stimulated, 500 pg/mL final; series mostly up to 46.1 µM; also: nearly all actives have a fitted effect of over 65% in size
Outline: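 HEPG2 CAGA-GFP reporter cells (1000/well, DMEM with 1% FBS) received compounds, then recombinant TGF-beta at 500 pg/mL final for 18 hours at 37 degrees C. Per-cell GFP summed per well was normalised to unstimulated and stimulated DMSO controls before curve fitting.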
Potency is read from the fitted curve at half-maximal effect; tags tell the direction and shape of the fitted curve.

SMILES	Potency
O=[N+]([O-])c1cc(S(=O)(=O)Nc2cccc(C(F)(F)F)c2)ccc1-n1nnc2ccccc21	inconclusive: 35.5 µM [inhibitor, single point]
COc1ccc(N=C2SCC(=O)N2c2ccc(OC)cc2)cc1	inconclusive: 0.562 µM [inhibitor, full curve]
CCCCNC(=O)c1cccc2c(=O)c(C)c(-c3ccccc3)oc12	inactive
O=C(Nc1ccc(Cl)cc1)c1nc[nH]c1C(=O)N1CCc2ccccc2C1	inconclusive: 5.62 µM [inhibitor, single point]
CC(=O)NCCc1ccc(S(=O)(=O)Nc2cccnc2)cc1	inactive
COc1ccc(NC(=O)CC2C(=O)N(c3ccc(Cl)cc3)C(=S)N2CCc2ccccn2)cc1 (centres undefined)	inconclusive: 35.5 µM [inhibitor, single point]
COc1ccc(N(CC(=O)Nc2ccc(C)cn2)S(=O)(=O)c2c(C)nn(C)c2C)cc1	inactive
Cc1ccc(S(=O)(=O)NCCN2CCOCC2)c(C)c1C	inactive
CN(C(=O)CC(NC(=O)c1ccccc1)(c1ccccc1)c1ccccc1)c1ccccc1	inconclusive: 22.4 µM [inhibitor, single point]
Cc1cccc(/C=N/Nc2ccc3ccccc3n2)c1	inconclusive: 25.1 µM [inhibitor, single point]
Cc1ccc(C(=O)Nc2ccc(Nc3ccccc3)cc2)cc1C	inconclusive: 35.5 µM [inhibitor, single point]
COc1ccccc1NS(=O)(=O)c1cccc(C(=O)NCC(c2ccc(F)cc2)N2CCOCC2)c1 (centres undefined)	inactive
Cc1cccc(-c2noc(CN(C(=O)COc3ccc(C(C)C)cc3)C(C)C)n2)c1	inconclusive: 35.5 µM [inhibitor, single point]
O=C(CSc1nc(-c2ccco2)cc(C(F)(F)F)n1)N1CCc2ccccc2C1	inconclusive: 12.6 µM [inhibitor, partial curve, poor fit]
Cc1ccc(NC(=O)CC2C(=O)N(Cc3ccccc3)C(=S)N2NC(=O)c2ccccc2)c(C)c1 (centres undefined)	inconclusive: 35.5 µM [inhibitor, single point]
Cc1nc(C)c(-c2csc(Nc3ccc(F)cc3)n2)s1	inconclusive: 22.4 µM [inhibitor, single point]
CCCCNC(=O)N(C)c1nc2ccccc2s1	inconclusive: 3.98 µM [inhibitor, partial curve, poor fit]
O=[N+]([O-])c1ccc(-c2nc(-c3ccncc3)no2)cc1	inactive
COc1ccc2c(CCNC(N)=S)c[nH]c2c1	inconclusive: 5.62 µM [inhibitor, single point]
Cc1cc2cc(CCNC(=O)C(=O)c3c[nH]c4ccccc34)c(=O)[nH]c2cc1C	inconclusive: 17.8 µM [inhibitor, single point]
Cc1ccc(CC(NC(=O)C2CCCCC2)C(=O)O)cc1 (centres undefined)	inconclusive: 0.447 µM [inhibitor, partial curve, poor fit]
NC(=O)c1cccc(-c2cnc3c(Nc4cccc(OC(F)(F)C(F)F)c4)nccn23)c1	inconclusive: 25.1 µM [inhibitor, single point]

SMILES	Potency
C/C(=N\Nc1cc(Cl)nc(C)n1)c1ccccc1	inactive
O=C(N/N=C/c1cccc(F)c1)NC1CCCCC1	inconclusive: 14.1 µM [inhibitor, single point]
O=C(Cc1n[nH]c(=O)c2ccccc12)OCC(=O)N(Cc1ccccc1)Cc1ccccc1	inconclusive: 35.5 µM [inhibitor, partial curve, poor fit]
CCOC(=O)C1Nc2c(cc(C(F)(F)F)cc2[N+](=O)[O-])C2c3ccccc3CC12 (centres undefined)	inconclusive: 10 µM [inhibitor, partial curve, poor fit]
O=S(=O)(CCCc1ccccc1)c1ncn[nH]1	inconclusive: 35.5 µM [inhibitor, partial curve, poor fit]
N#Cc1cc([N+](=O)[O-])cnc1N(CCO)CCO	inconclusive: 25.1 µM [inhibitor, single point]
CNc1cc(C(=O)O)nc2ccccc12	inconclusive: 15.8 µM [inhibitor, single point]
Cc1cc2c3c(c1)C1(C(=O)N3C(C)(C)CC2C)C(C#N)=C(N)Oc2cc(O)ccc21 (centres undefined)	inconclusive: 35.5 µM [inhibitor, single point]
CCOc1ccc(-c2nc(CSCC(=O)N3CCN(c4cccc(C(F)(F)F)c4)CC3)c(C)o2)cc1	inconclusive: 4.47 µM [inhibitor, full curve]
Cc1cccc(OCC(=O)Nc2c(C)ccc3nsnc23)c1C	inconclusive: 12.6 µM [inhibitor, single point]
COc1ccccc1CNS(=O)(=O)c1cc(C(=O)Nc2cccc(C(F)(F)F)c2)ccc1F	active: 11.2 µM
c1ccc(-c2nc3c([nH]2)CCc2nonc2-3)cc1	inconclusive: 1 µM [inhibitor, partial curve]
O=C(/C=C/[C@H]1O[C@@H](n2cnc3c(NC(=O)c4ccccc4)ncnc32)[C@H](O)[C@@H]1O)NCc1ccco1	inactive
CCN(CC)CCN1C(=O)/C(=C\c2ccc(Cl)c([N+](=O)[O-])c2)SC1=Nc1ccc(OC)cc1	inconclusive: 22.4 µM [inhibitor, partial curve, poor fit]
Cc1c(CC(=O)NCCc2ccccc2F)c(=O)oc2c(C)c3occ(C(C)(C)C)c3cc12	inconclusive: 35.5 µM [inhibitor, single point]
O=C(COC(=O)CNC(=O)c1ccc([N+](=O)[O-])o1)Nc1ncc(Cl)cc1Cl	inconclusive: 20 µM [inhibitor, single point]
COc1ccc(/C=N/NC(=S)SC)cc1OC	inconclusive: 0.178 µM [inhibitor, full curve, poor fit]
C[C@H]1CN=C(Nc2ccccc2)N1CCc1ccccc1	inconclusive: 35.5 µM [inhibitor, single point]
CCOc1ccc(CCN2C(=S)N([C@@H](Cc3ccc(O)cc3)CN3CCCC3CN3C(=S)NC[C@@H]3Cc3ccc(O)cc3)C[C@@H]2CC(C)C)cc1 (some centres undefined)	inconclusive: 20 µM [inhibitor, partial curve, poor fit]
O=C(Nc1cnn(Cc2ccc(Cl)c(Cl)c2)c1)C12CC3CC(CC(C3)C1)C2	inconclusive: 35.5 µM [inhibitor, single point]
Cc1cccc[n+]1CC(=O)/C=C1\N(C)c2ccccc2C1(C)C	inconclusive: 0.316 µM [inhibitor, full curve, poor fit]
CN1CCN(S(=O)(=O)c2ccc(N(C)Cc3cccs3)nc2)CC1	inconclusive: 1 µM [inhibitor, full curve, poor fit]

SMILES	Potency
O=C(CCc1nc2ccccc2c(=O)[nH]1)Nc1ccc(Cl)c(Cl)c1	inconclusive: 35.5 µM [inhibitor, single point]
COc1ccc(/C=C/CN2CCC(C(=O)NC(c3ccc(F)cc3)c3ccc4ccccc4n3)CC2)cc1 (centres undefined)	inconclusive: 31.6 µM [inhibitor, single point]
O=C(Cn1c(=O)oc2cc(S(=O)(=O)N3CCCCC3)ccc21)Nc1cccc(Cl)c1	inconclusive: 10 µM [inhibitor, partial curve, poor fit]
CCCCN1C(=O)c2[nH]nc(-c3ccccc3O)c2C1c1cccc(OCc2ccccc2)c1 (centres undefined)	active: 15.8 µM
CC(=O)NC(Cc1c[nH]c2ccccc12)C(=O)OCC(=O)N1CCN(S(=O)(=O)c2ccc(Cl)cc2)CC1 (centres undefined)	inactive
CC(CCc1ccccc1)N(C)CC(O)c1cccc([N+](=O)[O-])c1 (centres undefined)	inactive
COc1cc(/C=C/c2ccc3cccc(OC)c3n2)c(O)c([N+](=O)[O-])c1	inconclusive: 12.6 µM [inhibitor, single point]
CCOC(=O)c1scc(-c2ccccc2)c1S(=O)(=O)Nc1ccccc1F	inconclusive: 17.8 µM [inhibitor, single point]
Clc1cccc(N2CCN(c3ncnc4c3nc3n4CCCCC3)CC2)c1	inconclusive: 20 µM [inhibitor, partial curve, poor fit]
CC(C)c1ccc(C2N3CC4(C)CN2CC(c2ccccc2)(C3)C4=O)cc1 (centres undefined)	inactive
CN(CCc1ccccn1)Cc1ccc(Cl)c(Cl)c1	inactive
O=C(Nc1ccc(F)cc1)c1sccc1SCc1cccc(C(F)(F)F)c1	inconclusive: 22.4 µM [inhibitor, single point]
O=C(CC(C(=O)c1ccccc1)c1ccccc1)c1ccccc1 (centres undefined)	inactive
COc1ccccc1C(=O)NCCC(=O)N1CCN(c2ccc(C(F)(F)F)cn2)CC1	inactive
Cc1ccc2[nH]c(=O)c3cc(C(=O)N4CCN(c5ccccc5)CC4)sc3c2c1	inconclusive: 11.2 µM [inhibitor, partial curve]
CC(C)(CNC(=O)Cc1ccc(NS(=O)(=O)c2cccc(C(F)(F)F)c2)cc1)N1CCOCC1	inactive
COc1cccc(NC(=O)NCc2ccc3c(c2)CCN3C(=O)c2ccccc2)c1	inconclusive: 12.6 µM [inhibitor, single point]
N#CC(C(O)c1ccccc1)N1CCOCC1 (centres undefined)	inactive
CCOC(=O)C(Cc1nc(OCc2ccccc2)cc(OCc2ccccc2)n1)=NO	inconclusive: 25.1 µM [inhibitor, single point]
CCc1ccc2[nH]c(=O)c(CN(Cc3ccccc3)Cc3nnnn3C(C)(C)C)cc2c1	inconclusive: 35.5 µM [inhibitor, single point]

Reference: PubChem BioAssay AID588855 (National Center for Advancing Translational Sciences (NCATS), 2011)
